Reference: the supplement of paper PMC8728848
The list shows a part of the results.

Tests used:
Experiment in all cases: glycan array binding signal (z-score within array); higher = stronger binding
Settings in all cases: glycan notation: IUPAC condensed, linker removed
[1] = target: GlcNAc(b1-3)Gal(b1-4)GlcNAc(b1-3)Gal(b1-4)GlcNAc(b1-2)Man(a1-3)[GlcNAc(b1-3)Gal(b1-4)GlcNAc(b1-3)Gal(b1-4)GlcNAc(b1-2)Man(a1-6)]Man(b1-4)GlcNAc(b1-4)GlcNAc
How it was run: (§1)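 The binding signal is a Z-score computed within each array and averaged over linkers. Arrays of the same protein sequence at different concentrations or buffers were also averaged together. Data originate from 3228 arrays in the Consortium for Functional Glycomics database, kept only where the protein sequence was available.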

[2] = target: GlcNAc(b1-3)Gal(b1-4)GlcNAc(b1-3)Gal(b1-4)GlcNAc(b1-2)Man(a1-3)[GlcNAc(b1-3)Gal(b1-4)GlcNAc(b1-3)Gal(b1-4)GlcNAc(b1-2)Man(a1-6)]Man(b1-4)GlcNAc(b1-4)[Fuc(a1-6)]GlcNAc
How it was run: as §1

[3] = target: GlcNAc(b1-3)Gal(b1-4)GlcNAc(b1-3)Gal(b1-4)GlcNAc(b1-2)[GlcNAc(b1-3)Gal(b1-4)GlcNAc(b1-3)Gal(b1-4)GlcNAc(b1-6)]Man(a1-6)[GlcNAc(b1-3)Gal(b1-4)GlcNAc(b1-3)Gal(b1-4)GlcNAc(b1-2)Man(a1-3)]Man(b1-4)GlcNAc(b1-4)[Fuc(a1-6)]GlcNAc
How it was run: as §1

[4] = target: GlcNAc(b1-3)Gal(b1-4)GlcNAc(b1-3)Gal(b1-4)GlcNAc(b1-3)Gal(b1-4)GlcNAc(b1-2)Man(a1-3)[GlcNAc(b1-3)Gal(b1-4)GlcNAc(b1-3)Gal(b1-4)GlcNAc(b1-3)Gal(b1-4)GlcNAc(b1-2)Man(a1-6)]Man(b1-4)GlcNAc(b1-4)GlcNAc
How it was run: as §1

[5] = target: GlcNAc(b1-3)Gal(b1-4)GlcNAc(b1-3)Gal(b1-4)GlcNAc(b1-3)Gal(b1-4)GlcNAc(b1-2)Man(a1-3)[GlcNAc(b1-3)Gal(b1-4)GlcNAc(b1-3)Gal(b1-4)GlcNAc(b1-3)Gal(b1-4)GlcNAc(b1-2)Man(a1-6)]Man(b1-4)GlcNAc(b1-4)[Fuc(a1-6)]GlcNAc
How it was run: as §1

[6] = target: GlcNAc(b1-3)Gal(b1-4)GlcNAc(b1-3)Gal(b1-4)GlcNAc(b1-3)Gal(b1-4)GlcNAc(b1-2)[GlcNAc(b1-3)Gal(b1-4)GlcNAc(b1-3)Gal(b1-4)GlcNAc(b1-3)Gal(b1-4)GlcNAc(b1-6)]Man(a1-6)[GlcNAc(b1-3)Gal(b1-4)GlcNAc(b1-3)Gal(b1-4)GlcNAc(b1-3)Gal(b1-4)GlcNAc(b1-2)Man(a1-3)]Man(b1-4)GlcNAc(b1-4)[Fuc(a1-6)]GlcNAc
How it was run: as §1

[7] = target: GlcNAc(b1-3)Gal(b1-4)GlcNAc(b1-3)Gal(b1-4)GlcNAc(b1-3)Gal(b1-4)GlcNAc(b1-3)Gal(b1-4)GlcNAc(b1-2)Man(a1-3)[GlcNAc(b1-3)Gal(b1-4)GlcNAc(b1-3)Gal(b1-4)GlcNAc(b1-3)Gal(b1-4)GlcNAc(b1-3)Gal(b1-4)GlcNAc(b1-2)Man(a1-6)]Man(b1-4)GlcNAc(b1-4)GlcNAc
How it was run: as §1

[8] = target: GlcNAc(b1-3)Gal(b1-4)GlcNAc(b1-3)Gal(b1-4)GlcNAc(b1-3)Gal(b1-4)GlcNAc(b1-3)Gal(b1-4)GlcNAc(b1-2)Man(a1-3)[GlcNAc(b1-3)Gal(b1-4)GlcNAc(b1-3)Gal(b1-4)GlcNAc(b1-3)Gal(b1-4)GlcNAc(b1-3)Gal(b1-4)GlcNAc(b1-2)Man(a1-6)]Man(b1-4)GlcNAc(b1-4)[Fuc(a1-6)]GlcNAc
How it was run: as §1

[9] = target: GlcNAc(b1-3)Gal(b1-4)GlcNAc(b1-3)Gal(b1-4)GlcNAc(b1-3)Gal(b1-4)GlcNAc(b1-3)Gal(b1-4)GlcNAc(b1-2)[GlcNAc(b1-3)Gal(b1-4)GlcNAc(b1-3)Gal(b1-4)GlcNAc(b1-3)Gal(b1-4)GlcNAc(b1-3)Gal(b1-4)GlcNAc(b1-6)]Man(a1-6)[GlcNAc(b1-3)Gal(b1-4)GlcNAc(b1-3)Gal(b1-4)GlcNAc(b1-3)Gal(b1-4)GlcNAc(b1-3)Gal(b1-4)GlcNAc(b1-2)Man(a1-3)]Man(b1-4)GlcNAc(b1-4)[Fuc(a1-6)]GlcNAc
How it was run: as §1

[10] = target: GlcNAc(b1-3)Gal(b1-4)GlcNAc(b1-3)Gal(b1-4)GlcNAc(b1-3)GalNAc
How it was run: as §1

[11] = target: GlcNAc(b1-3)Gal(b1-4)GlcNAc(b1-3)GalNAc
How it was run: as §1

[12] = target: GlcNAc(b1-3)Gal(b1-4)GlcNAc(b1-3)[GlcNAc(b1-3)Gal(b1-4)GlcNAc(b1-3)]GalNAc
How it was run: as §1

[13] = target: GlcNAc(b1-3)Gal(b1-4)GlcNAc(b1-6)[Gal(b1-3)]GalNAc
How it was run: as §1

[14] = target: GlcNAc(b1-3)Gal(b1-4)GlcNAc(b1-6)[GlcNAc(b1-3)Gal(b1-3)]GalNAc
How it was run: as §1

[15] = target: GlcNAc(b1-3)Gal(b1-4)GlcNAc(b1-6)[GlcNAc(b1-3)]Gal(b1-4)GlcNAc
How it was run: as §1

GlcNAc(b1-3)GalNAc = target: GlcNAc(b1-3)GalNAc
How it was run: as §1

GlcNAc(b1-3)Man = target: GlcNAc(b1-3)Man
How it was run: as §1

[16] = target: GlcNAc(b1-3)[GlcNAc(b1-4)][GlcNAc(b1-6)]GlcNAc
How it was run: as §1

[17] = target: GlcNAc(b1-3)[GlcNAc(b1-6)]Gal(b1-4)GlcNAc
How it was run: as §1

[18] = target: GlcNAc(b1-3)[GlcNAc(b1-6)]GalNAc
How it was run: as §1

[19] = target: GlcNAc(b1-4)Gal(b1-4)GlcNAc
How it was run: as §1

GlcNAc(b1-4)GlcNAc = target: GlcNAc(b1-4)GlcNAc
How it was run: as §1

[20] = target: GlcNAc(b1-4)GlcNAc(b1-4)GlcNAc
How it was run: as §1

[21] = target: GlcNAc(b1-4)GlcNAc(b1-4)GlcNAc(b1-4)GlcNAc(b1-4)GlcNAc
How it was run: as §1

[22] = target: GlcNAc(b1-4)GlcNAc(b1-4)GlcNAc(b1-4)GlcNAc(b1-4)GlcNAc(b1-4)GlcNAc
How it was run: as §1

[23] = target: GlcNAc(b1-4)[GlcNAc(b1-6)]GalNAc
How it was run: as §1

[24] = target: GlcNAc(b1-6)Gal(b1-4)GlcNAc
How it was run: as §1

GlcNAc(b1-6)GalNAc = target: GlcNAc(b1-6)GalNAc
How it was run: as §1

[25] = target: GlcNAc6S(b1-3)Gal(b1-4)GlcNAc
How it was run: as §1

Kdn(a2-3)Gal(b1-3)GalNAc = target: Kdn(a2-3)Gal(b1-3)GalNAc
How it was run: as §1

Kdn(a2-3)Gal(b1-3)GlcNAc = target: Kdn(a2-3)Gal(b1-3)GlcNAc
How it was run: as §1

Kdn(a2-3)Gal(b1-4)Glc = target: Kdn(a2-3)Gal(b1-4)Glc
How it was run: as §1

Kdn(a2-3)Gal(b1-4)GlcNAc = target: Kdn(a2-3)Gal(b1-4)GlcNAc
How it was run: as §1

[26] = target: Kdn(a2-3)Gal(b1-4)[Fuc(a1-3)]GlcNAc
How it was run: as §1

Kdn(a2-6)Gal(b1-4)GlcNAc = target: Kdn(a2-6)Gal(b1-4)GlcNAc
How it was run: as §1

[27] = target: Man(a1-2)Man(a1-2)Man(a1-3)Man
How it was run: as §1

[28] = target: Man(a1-2)Man(a1-2)Man(a1-6)[Man(a1-3)]Man
How it was run: as §1

Man(a1-2)Man(a1-3)Man = target: Man(a1-2)Man(a1-3)Man
How it was run: as §1

B1: Apa (Mycobacterium tuberculosis), Rv1860 (protein)
chain: MHQVDPNLTRRKGRLAALAIAAMASASLVTVAVPATANADPEPAPPVPTTAASPPSTAAAPPAPATPVAPPPPAAANTPNAQPGDPNAAPPPADPNAPPPPVIAPNAPQPVRIDNPVGGFSFALPAGWVESDAAHFDYGSALLSKTTGDPPFPGQPPPVANDTRIVLGRLDQKLYASAEATDSKAAARLGSDMGEFYMPYPGTRINQETVSLDANGVSGSASYYEVKFSDPSKPNGQIWTGVIGSPAANAPDAGPPQRWFVVWLGTANNPVDKGAAKALAESIRPLVAPPPAPAPAPAEPAPAPAPAGEVAPTPTTPTPQRTLPA
- glycan array binding signal (z-score) [1]: 0.234
- glycan array binding signal (z-score) [2]: -0.096
- glycan array binding signal (z-score) [3]: 0.517
- glycan array binding signal (z-score) [4]: 0.106
- glycan array binding signal (z-score) [5]: 0.005
- glycan array binding signal (z-score) [6]: 0.097
- glycan array binding signal (z-score) [7]: 0.089
- glycan array binding signal (z-score) [8]: -0.366
- glycan array binding signal (z-score) [9]: 0.395
- glycan array binding signal (z-score) [10]: -0.41
- glycan array binding signal (z-score) [11]: -0.584
- glycan array binding signal (z-score) [12]: 0.26
- glycan array binding signal (z-score) [13]: -0.615
- glycan array binding signal (z-score) [14]: -0.157
- glycan array binding signal (z-score) [15]: -0.495
- glycan array binding signal (z-score) (GlcNAc(b1-3)GalNAc): -0.234
- glycan array binding signal (z-score) (GlcNAc(b1-3)Man): 0.339
- glycan array binding signal (z-score) [16]: -0.159
- glycan array binding signal (z-score) [17]: -0.418
- glycan array binding signal (z-score) [18]: -0.468
- glycan array binding signal (z-score) [19]: -0.28
- glycan array binding signal (z-score) (GlcNAc(b1-4)GlcNAc): -0.405
- glycan array binding signal (z-score) [20]: -0.278
- glycan array binding signal (z-score) [21]: 0.186
- glycan array binding signal (z-score) [22]: 0.043
- glycan array binding signal (z-score) [23]: -0.627
- glycan array binding signal (z-score) [24]: -0.453
- glycan array binding signal (z-score) (GlcNAc(b1-6)GalNAc): -0.174
- glycan array binding signal (z-score) [25]: -0.005
- glycan array binding signal (z-score) (Kdn(a2-3)Gal(b1-3)GalNAc): -0.323
- glycan array binding signal (z-score) (Kdn(a2-3)Gal(b1-3)GlcNAc): -0.245
- glycan array binding signal (z-score) (Kdn(a2-3)Gal(b1-4)Glc): -0.262
- glycan array binding signal (z-score) (Kdn(a2-3)Gal(b1-4)GlcNAc): -0.392
- glycan array binding signal (z-score) [26]: -0.055
- glycan array binding signal (z-score) (Kdn(a2-6)Gal(b1-4)GlcNAc): -0.331
- glycan array binding signal (z-score) [27]: 0.925
- glycan array binding signal (z-score) [28]: -0.218
- glycan array binding signal (z-score) (Man(a1-2)Man(a1-3)Man): -0.335
